Kd data for 1 molecule are collected here from paper PMC10529913 (2023).

The target of the test is unmodified histone H4 peptide (UniProt P59259). The test can be described thus: MST.

The Kd is a measure of binding affinity in units of concentration. Read a low Kd as higher affinity.

B1: His-TEV-DDM1(Δ[…]) (domain or fragment)
chain: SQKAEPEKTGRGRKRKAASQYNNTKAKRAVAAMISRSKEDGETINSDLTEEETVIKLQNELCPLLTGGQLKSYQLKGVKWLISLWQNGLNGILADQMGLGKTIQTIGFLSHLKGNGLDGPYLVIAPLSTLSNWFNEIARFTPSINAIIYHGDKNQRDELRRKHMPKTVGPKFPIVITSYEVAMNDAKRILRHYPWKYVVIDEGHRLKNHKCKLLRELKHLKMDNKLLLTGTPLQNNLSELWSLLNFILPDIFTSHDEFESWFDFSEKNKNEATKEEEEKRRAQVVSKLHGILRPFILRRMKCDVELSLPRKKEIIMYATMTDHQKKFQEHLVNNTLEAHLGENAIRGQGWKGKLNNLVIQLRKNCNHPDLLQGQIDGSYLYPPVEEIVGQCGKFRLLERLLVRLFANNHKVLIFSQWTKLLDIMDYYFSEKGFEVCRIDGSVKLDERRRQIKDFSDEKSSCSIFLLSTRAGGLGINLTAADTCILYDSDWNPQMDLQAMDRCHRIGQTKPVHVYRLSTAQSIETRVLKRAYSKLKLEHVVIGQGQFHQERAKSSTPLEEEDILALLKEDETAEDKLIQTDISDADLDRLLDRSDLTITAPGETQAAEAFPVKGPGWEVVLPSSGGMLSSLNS
modifications: labelled with His-label RED-tris-NTA
As to B1, the Kd is 34 µM.
